# Laboratory results as given in PubChem BioAssay AID1508642 (National Center for Advancing Translational Sciences (NCATS), 2021).
# Out of some 43,000 compounds screened, about 200 (0.47%) were called active. About 12% were inconclusive and are not listed. The call rests on the fitted dose curve; in most records, active means well fitted cell-killing curve with a large enough effect; inconclusive means small, poorly fitted or top-dose-only effect, or effect the other way; inactive means flat fitted curve, though single readings scatter. Some of the results follow.
# Assay: Cell viability qHTS assay in S16 Pmp22-F2sN cells; further: nearly all actives have a fitted effect of over 65% in size
# Details: S16 Pmp22-F2sN Schwann cells (luciferase reporters placed in the Pmp22 gene) viability, CellTiter-Glo, 24 h; series mostly up to 57.5 µM; activity change, negative = cytotoxicity: at the top concentration
# Method in brief: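 Luminescence from CellTiter-Glo, read by CCD camera after a 15 min room-temperature incubation, served as the viability signal. Reporter Schwann cells (S16 Pmp22-F2sN) had been treated with pin-transferred compounds for 24 h at 37C.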
# On the % scale 0 is the no-effect control and ±100 the full control effect.
row,Structure (SMILES),"activity change, negative = cytotoxicity"
1,CCOc1ccc(N2C(=O)N(Cc3ccc(C)cc3C)c3ccccc3S2(=O)=O)cc1,inactive: -0.788%
2,COc1ccccc1N1CCN(CC(O)COc2cc(C)cc(C)c2)CC1 (configuration not stated),inactive: -29.4%
3,COc1ccc(-c2ccc3c(N)c(C(=O)Nc4cc(F)ccc4C)sc3n2)cc1,inactive: -3.4%
4,Cc1cccc(Nc2c3c(nc4nncn24)CCC3)c1,inactive: -1.32%
5,CCn1cc(C(=O)N2CCN(c3cc(C)ccc3C)CC2)c(=O)c2cc(S(=O)(=O)N(C)C3CCCCC3)ccc21,inactive: -4.66%
6,COc1cccc(CNC(=O)CCCN2C(=O)CSc3c2c(C)nn3-c2ccccc2)c1,inactive: 3.44%
7,O=c1c2ccccc2n(Cc2cccc(F)c2)c(=O)n1Cc1ccccc1Cl,inactive: -12.4%
8,COC(=O)c1ccccc1NC(=O)c1ccc2nc(CCc3ccccc3)oc2c1,inactive: 6.77%
9,COc1ccc(Cn2ccnc2SCC(=O)NCc2ccco2)cc1,inactive: 5.15%
10,Cc1cccc(N2CCN(S(=O)(=O)c3ccc4c(c3)CC(=O)N4C)CC2)c1C,inactive: -13.1%
11,CCN(CC)CCNC(=O)Cn1nc(C)c2c(C)n(-c3ccccc3)nc2c1=O,inactive: 11%
12,Cc1ccc(Cl)cc1NC(=O)CSc1nc2ccccc2nc1Cc1ccccc1,inactive: -4.09%
13,COc1cccc(-c2noc(COc3ccccc3Cl)n2)c1,inactive: 2.45%
14,Cc1cccc(Cn2cc(S(=O)(=O)c3cccc(C)c3)c(=O)c3cc(F)c(N4CCOCC4)cc32)c1,inactive: -18.1%
15,Cc1ccc(CNC(=O)CCCn2c(=O)[nH]c3ccc(Br)cc3c2=O)cc1,inactive: 8.67%
16,CCOc1ccc(-n2c(SCC(=O)NC3CCCCC3)nc3c([nH]c4ccccc43)c2=O)cc1,inactive: 7.39%
17,Cc1ccc(-n2c(=O)c3c(cnn3C)n(CC(=O)Nc3ccccc3C)c2=O)cc1,inactive: -5.24%
18,CCCCn1c(=NC(=O)c2cc3ccccc3o2)c(C(=O)OCC)cc2c(=O)n3ccccc3nc21,inactive: -3.26%
19,O=C(Cn1c(=O)oc2cc(S(=O)(=O)N3CCCCC3)ccc21)NCc1ccc(Cl)cc1,inactive: -12.6%
20,Cc1cc(C)cc(-n2c(SCC(N)=O)nc3c([nH]c4ccccc43)c2=O)c1,inactive: 16.2%
21,O=C(Nc1ccccc1C(F)(F)F)N1CCC(CN2CCc3ccccc3C2)CC1,inactive: 3.27%

row,Structure (SMILES),"activity change, negative = cytotoxicity"
1,O=C(NC1CC(=O)N(c2cccc(F)c2)C1)c1cc2ccccc2o1 (configuration not stated),inactive: 12.4%
2,Cc1ccc(OCc2ccc(-c3nc(C#N)c(NCc4ccccc4Cl)o3)o2)cc1,inactive: -1.2%
3,COc1ccc(Nc2ncnc3c2cnn3-c2ccc(C)cc2)cc1Cl,inactive: 8.38%
4,Cc1ccc2nc(-c3cccc(NC(=O)c4cccc5ccccc45)c3)oc2c1,inactive: -8.81%
5,CCC(=O)N1CCc2cc(Br)cc(S(=O)(=O)CCC(=O)NCc3cccc(OC)c3)c21,inactive: -0.943%
6,CCOC(=O)c1ccc(CN(Cc2ccccc2C)S(=O)(=O)c2ccc(F)c(C)c2)cc1,inactive: -16.7%
7,COCCNc1oc(/C=C/c2ccc(F)cc2)nc1C#N,inactive: 3.74%
8,COc1ccccc1NC(=O)c1oc2ccccc2c1NC(=O)C1CCCCC1,inactive: 20%
9,CC1C(=O)N2CCCc3cc(S(=O)(=O)N4CCC(C(N)=O)CC4)cc1c32 (configuration not stated),inactive: -1.24%
10,Cc1ccc2cc(CN(C(=O)c3cccc(Cl)c3)c3ccccc3)c(=O)[nH]c2c1,inactive: 0.636%
11,CCCSCCCNC(=O)c1ccc2c(c1)sc1nc(-c3ccc(OCC)cc3)cn12,inactive: 4.03%
12,Cc1ccccc1CSc1nc2ccsc2c(=O)n1CCC(C)C,inactive: 8.86%
13,O=C(NCc1ccccc1F)C1CCN(c2nn3cc(-c4ccc(F)cc4)nc3s2)CC1,inactive: -3.11%
14,CN1c2ccc(Cl)cc2-c2nc(SCC(=O)NCc3ccccc3)ncc2S1(=O)=O,inactive: 7.98%
15,COc1cccc(CNC(=O)c2cnc(N3CCCCC3)c3ccccc23)c1,inactive: 4.73%
16,CCc1ccc2oc(C(=O)Nc3ccccc3C(=O)OC)cc(=O)c2c1,inactive: 6.34%
17,COc1ccc(CNC(=O)Cn2c(=O)cc(-c3ccccc3)c3c(C)nn(C)c32)cc1,inactive: 3.57%
18,COc1ccc(S(=O)(=O)N(CC(=O)Nc2cccnc2)c2ccc(Cl)cc2)cc1,inactive: 19.2%
19,CCOc1ccccc1CNC(=O)c1cccn1-c1nnc(N2CCCC2)s1,inactive: 0.767%
20,Cc1cccc(N2CCN(C(=O)Cn3nc(Cc4cccnc4)c4ccccc4c3=O)CC2)c1C,inactive: -17.1%
21,COc1ccc(NC(=O)Cn2c(=O)ccc3cc(S(=O)(=O)N4CCCC4)ccc32)cc1Cl,inactive: -1.88%

row,Structure (SMILES),"activity change, negative = cytotoxicity"
1,COc1ccc(CNC(=O)COCc2cc(-c3cccs3)on2)cc1,inactive: 1.32%
2,O=C(O)Cn1ccc2cc(S(=O)(=O)N3CCCCCC3)ccc21,inactive: -2.68%
3,Cc1ccccc1CSc1cn(CC(=O)N2CCCCCC2)c2ccccc12,inactive: -11.1%
4,Cc1cccn2c(=O)c(C(=O)NCCc3ccc(S(N)(=O)=O)cc3)c(O)nc12,inactive: 4.37%
5,COc1ccc(NC(=O)c2c(NCc3cccc(OC)c3)sc3c2CCCC3)cc1,inactive: -21.2%
6,Cc1ccc2occ(CC(=O)N(Cc3ccc(C(C)C)cc3)C3CCS(=O)(=O)C3)c2c1 (configuration not stated),inactive: -14.7%
7,O=C(CCC1N=C2c3ccccc3N=C(SCc3ccccc3F)N2C1=O)NCc1ccc(F)cc1 (configuration not stated),inactive: -2.04%
8,CC(C)(C)c1ccc(C(=O)N2CCC(c3nc4ccccc4o3)CC2)cc1,inactive: -21.4%
9,Cc1ccc(-n2c(=O)c3c(c4cc(C)ccc4n3C)n(CC(=O)NCc3ccccc3)c2=O)cc1,inactive: 1.35%
10,CCN1CCc2nc3sc(C(=O)c4ccc(F)cc4)c(N)c3cc2C1,inactive: 0.641%
11,COc1ccccc1NC(=O)CSc1nc(-c2ccccc2F)nc2cc(=O)[nH]n12,inactive: 4.42%
12,COc1ccc(CCNc2nc3c(-c4cccc(C)c4)nnn3c3ccccc23)cc1OC,inactive: 8.57%
13,COc1ccc(-c2onc(C)c2C)cc1S(=O)(=O)NCC1CCN(Cc2cccc(F)c2)CC1,inactive: -24.7%
14,CC1=C(c2ccc(Cl)cc2)S(=O)(=O)N=C1N1CCC(C(=O)NCc2ccccc2F)CC1,inactive: -17%
15,O=C(NCCc1ccccc1)C(=O)NCC(c1ccc2c(c1)OCO2)N1CCOCC1 (configuration not stated),inactive: -1.26%
16,CC1CCN(S(=O)(=O)c2nnc(NC(=O)c3cccc(Br)c3)s2)CC1,inactive: -17.6%
17,CCS(=O)(=O)N1CCc2cc(C(=O)NCCc3ccc(OC)cc3)ccc21,inactive: 0.553%
18,COc1cc(NC(=O)CC(C)n2nc(C)cc2C)cc(OC)c1 (configuration not stated),inactive: -1.58%
19,CCNc1nc(NC(C)(C)C)nc(Oc2ccc(=O)n(C)n2)n1,inactive: 13.6%
20,Cc1ccc(NC(=O)Cn2c(=O)n(CCC(=O)NCc3ccccc3Cl)c(=O)c3ccccc32)cc1,inactive: 8.03%
